Experimental data reported in PubChem BioAssay (NCATS).
The other results are listed elsewhere or left out. Shown are side measurements of this screen, not its main read-out; they come without a call. Most of these compounds were active or inconclusive in the main read-out, so they are no random draw. Potencies come from curve fits of mixed quality, noted in brackets.

Experiment: qHTS Assay for Lipid Storage Modulators (AID 1519)
Details: Drosophila S3 cells, BODIPY lipid droplet/cell ratio, laser cytometry; measured here: lipid (BODIPY) channel AC50; cells loaded with oleic acid
How it was run: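 Cells seeded at 5,000 per well were treated with compounds over a concentration series and loaded with oleic acid (400 uM, as added). Lipid droplet fluorescence (488 nm excitation, 500-530 nm channel) was read by laser-scanning cytometry and normalized to 20 uM Triacsin C.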
Tags give direction and shape of the fitted curve.

Compound | AC50
CN(C)Cc1ccccc1-c1ccc2ncnc(N(C)C)c2c1 | 7.94 µM [rising, partial curve, poor fit]
CCNc1ncc2nc(-c3ccccc3)c(=O)n(CCOC)c2n1 | 1.12 µM [rising, full curve, poor fit]
O=C(Oc1ccccc1)N1CCC2(CC1)CCN(c1cccc(-c3ccccc3)c1)CC2 | 39.8 µM [falling, single point]
OCC1NCC(O)C(O)C1O (stereo unspecified) | 0.355 µM [falling, full curve, poor fit]
COc1cc2ccc(=O)oc2c(O)c1OCC=C(C)C | 35.5 µM [rising, single point]
COc1ccc(Oc2ncc3nc(-c4cc(F)cc(F)c4)c(=O)n(C[C@H]4CCCO4)c3n2)cc1 | 4.47 µM [rising, single point]
O=c1[nH]c2cc([N+](=O)[O-])c([N+](=O)[O-])cc2[nH]c1=O | 7.94 µM [falling, full curve, poor fit]
C[C@@H](/C=C\c1cccc(Oc2ccc(F)cc2)c1)N(O)C(N)=O | 3.55 µM [rising, full curve]
Cc1cc(Cn2cnc3c2C[C@@H](C(=O)O)N(C(=O)C(c2ccccc2)c2ccccc2)C3)ccc1N(C)C | 15.8 µM [rising, full curve]
CC1c2cccc(O)c2C(O)=C2C(=O)[C@]3(O)C(O)=C(C(N)=O)C(=O)C(N(C)C)C3C(O)C21 (stereo partly specified) | 5.62 µM [rising, partial curve]
COc1cccc(Cn2c(=O)c(-c3cccc(C#N)c3)nc3cnc(N4CCOCC4)nc32)c1 | 1 µM [rising, partial curve]
